This is an account of results in the RNAGym collection of RNA variant scans (doi:10.1073/pnas.2313332121).

B1: TPR 5TU (parent)
chain: GGAUCUUCUCGAUCUAACAAAAAAGACAAAUCUGCCACAAAGCUUGAGAGCAUCUUCGGAUGCAGAGGCGGCAGCCUUCGGUGGCGCGAUAGCGCCAACGUUCUCAACUAUGACACGCAAAACGCGUGCUCCGUUGAAUGGAGUUUAUCAUG

Variants at the background level are over-represented here. Some results are limits rather than exact numbers.

Variants of B1 are the subject of the series. The experiment in a line: polymerase ribozyme fitness, log enrichment relative to wild type (log ratio); higher = more active; in vitro selection for triplet polymerase activity. The method in brief: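 Mutant libraries were PCR-built and transcribed for each subunit of a heterodimeric triplet polymerase ribozyme and selected for one round in triplicate at −7 °C, frozen, before gel excision of extended constructs and streptavidin-bead capture. Input and output libraries were Illumina-sequenced, keeping genotypes with ≥10 input reads and ≥1 read per output. Fitness is a logarithmic ratio of genotype to wild-type enrichment, in base 2, using inverse-variance-weighted replicate averages.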
For the variant C5A G67C C103A G141U A150C, the “polymerase ribozyme fitness (log ratio)” value is at most -4.2.

On to C5A C57U C85U, for which the “polymerase ribozyme fitness (log ratio)” value came out at 0.39. To C5G C8G A20C C54U belongs at most -4.2; to C5G A24U U31C G42C C69A A97G C105U A137U, at most -4.2; to C5U C27G C75G C87A C95A C99A U127A A138U G140C, at most -4.2. The same measure for C5A A29U C57U G58C C87G A91G A137C U148C: at most -4.2; for C5G C54A A89G C116A C123U U145A: at most -4.2; for C5A G11C G48U C76A C99A: at most -4.2. To C5A U31G C85G C99U A115U C118A G136U G141C belongs at most -4.2. With C5G G59U C99U A119G, the “polymerase ribozyme fitness (log ratio)” value was -1.53.

For C5A A39U A138G, the “polymerase ribozyme fitness (log ratio)” value was at most -4.2. As for C5G U45G G86U C93G A97G, the “polymerase ribozyme fitness (log ratio)” value was -3.16. With C5U C8G A137U U145A A147C, the “polymerase ribozyme fitness (log ratio)” value is at most -4.2. To C5G A16C C43A C57U C63U G86A G88C belongs at most -4.2. The same measure for C5G G11C U13G A24C G58C C79U C87G: at most -4.2; for C5G A19C A23U A41G C76G G92A U127G U139G: at most -4.2; for C5A A30U C57A C85A C87A U146A U148A: at most -4.2. The same measure for C5A U33A C123G A142U: at most -4.2; for C5A G92A: -1.42. As to C5G A40C C69A G70U A89C, the “polymerase ribozyme fitness (log ratio)” value is at most -4.2. To C5U A24C C79A G84A U104A A142G belongs at most -4.2; to C5U A28C C38U G74C A115U, at most -4.2; to C5G A37U C38U A66C C75A U77A U90A C93U A113C, at most -4.2. To C5G G46U G81U C87U G88A A98U C125U belongs at most -4.2; to C5G A40C G71A C85A A142C A150C, at most -4.2. To C5G C69G C85A G133U U145C belongs at most -4.2; to C5A C8A A28U C75G C93G A107U C116A, at most -4.2; to C5G G48C G62C A97U G141U, at most -4.2.

Turning to C5U A12U C85G C103A G143C, the “polymerase ribozyme fitness (log ratio)” value is at most -4.2.

In the case of C5G A30C G42A C57G A64U C76U G84U C96U A122G U127C G133C, the “polymerase ribozyme fitness (log ratio)” value was at most -4.2. On to C5A C36G A52G G84U A89C A106U U144G, for which the “polymerase ribozyme fitness (log ratio)” value is at most -4.2.

As to C5G A39C A64G C79G C103G G141U, the “polymerase ribozyme fitness (log ratio)” value is at most -4.2. Consider C5U A52C C76U C93A C116U C123G, for which the “polymerase ribozyme fitness (log ratio)” value was -3.61. The same measure for C5G A12G G42C U61G A106C C125U G143U U144G: at most -4.2; for C5G A12C A29U C35A A47C U53C G59U A91G G124A G140A: at most -4.2; for C5G C85A: -1.7. The same measure for C5U C51U G84A A150G: -2.47; for C5A A19U G86C: -3.47; for C5A C38U G50A A60G C95A C103U G126U: -3.13.

Consider C5G U7A U56A A91C A106G C125A G136A U145A, for which the “polymerase ribozyme fitness (log ratio)” value was at most -4.2.

C5G A28U A98U C99G U104A: the “polymerase ribozyme fitness (log ratio)” value was at most -4.2. To C5A C8G A40C A49G G84U C95G belongs at most -4.2; to C5G C35U G80U C95U U104A, at most -4.2; to C5U A24C C32G G34U C35U G67C A73U C76U U77G A91U G94A G117C G133A C149G, at most -4.2.

In the case of C5G C57G C87G A115C, the “polymerase ribozyme fitness (log ratio)” value was at most -4.2. The same measure for C5A U45G C85G: -2.33; for C5G A12G A21C A26U C38G U77A C118U: at most -4.2; for C5G A12C G94U C149A: at most -4.2. The same measure for C5A U44A G81A G83C C85G G133C G141C: at most -4.2; for C5A A21U G50A C85A C96A C118G G133C C149U: at most -4.2; for C5A C38U A66C C72U C79A C96A G117A: at most -4.2. To C5G U13A C87A C116U belongs at most -4.2; to C5U A49C G81U C93G, at most -4.2.

Consider C5A A37C C95U C96G U102G C108U, for which the “polymerase ribozyme fitness (log ratio)” value was at most -4.2. Regarding C5G A23G G50C A52C C69G A119G, the “polymerase ribozyme fitness (log ratio)” value was at most -4.2. Take C5G G84A: the “polymerase ribozyme fitness (log ratio)” value was -0.0388.

Regarding C5A C8U A37U G58C G67C G88U G128A, the “polymerase ribozyme fitness (log ratio)” value was at most -4.2. Regarding C5G C103A G117A, the “polymerase ribozyme fitness (log ratio)” value was -2.88. C5G A120C: the “polymerase ribozyme fitness (log ratio)” value was -0.488.

Consider C5U C18U G34U C36U C132G, for which the “polymerase ribozyme fitness (log ratio)” value was at most -4.2. Regarding C5U A21U, the “polymerase ribozyme fitness (log ratio)” value came out at 1.4.

As for C5U C43G U53A A60U C87A C99A A121U, the “polymerase ribozyme fitness (log ratio)” value is at most -4.2. The same measure for C5G U44A U53A C57U U77A U78A G84U C114U A122C C123A C125A U146C: at most -4.2; for C5G A23U C54G C79U G81U G94U U101A A110C C131A: at most -4.2.

Turning to C5U A12U C18G G70C G80A C93G C95U A98G U144G, the “polymerase ribozyme fitness (log ratio)” value was at most -4.2. The same measure for C5U A28C A30U C95G: at most -4.2.

Regarding C5G G84A G128A C132A, the “polymerase ribozyme fitness (log ratio)” value was at most -4.2. To C5A U53G C87A belongs at most -4.2. To C5G C54A A91C belongs at most -4.2. The same measure for C5G U13A A23U A52C C87A C105U A107G: at most -4.2.

Turning to C5A A47C G88U, the “polymerase ribozyme fitness (log ratio)” value was at most -4.2. The same measure for C5U A12U A52G C85A G140U: at most -4.2.

On to C5A G68A G92A, for which the “polymerase ribozyme fitness (log ratio)” value was at most -4.2. The same measure for C5A A30G C36U G68U G100A: at most -4.2. To C5U A12U A29G G58A C93G U144G belongs at most -4.2; to C5G G59U C95U C103G A110C C123U U127A G152C, at most -4.2; to C5G U44A C85U G112A A122G, at most -4.2. The same measure for C5G C38A G58U: -1.06; for C5G C10G U13C U56A C96A U102G A110U: at most -4.2.

As for C5A C51G G74A C85G C87U, the “polymerase ribozyme fitness (log ratio)” value is at most -4.2. Turning to C5G G11U A73U C85G G124A U144A, the “polymerase ribozyme fitness (log ratio)” value was at most -4.2.

In the case of C5G A26U U53G G58C G92U C116G A119G, the “polymerase ribozyme fitness (log ratio)” value is at most -4.2.

Take C5G C10G C18G A19G A23C C35G G80U G83C G128C U134A U145C U146G: the “polymerase ribozyme fitness (log ratio)” value was at most -4.2.
